# Source: the supplement of paper PMC3334620
# Over roughly 33,000 sequences, “E-score (-0.5 to 0.5)” has its median near -0.053; the highest 2% begin near 0.37. Some of the results follow.
# Biological target: Hap1 (UniProt P0CE41)
# Experiment: PBM E-score (8-mer binding enrichment) (E-score (-0.5 to 0.5)); higher = stronger / more preferred TF binding; most listed sequences are background and not binding sites
# Details: protein concentration: 200 nM; construct: GST-DNA-binding domain
# In short: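 The E-score, a modified Wilcoxon-Mann-Whitney statistic, was computed by the Universal PBM Analysis Suite for every ungapped eight-base word pooled with its reverse complement. Scans behind it were normalised with masliner after bound GST-tagged yeast transcription factors were detected with fluorescent anti-GST. The proteins, at about 100-200 nM, had been applied to universal all-10-mer Agilent arrays made double-stranded by primer extension.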
# Sequence of UniProt P0CE41 (P0CE41 whole entry): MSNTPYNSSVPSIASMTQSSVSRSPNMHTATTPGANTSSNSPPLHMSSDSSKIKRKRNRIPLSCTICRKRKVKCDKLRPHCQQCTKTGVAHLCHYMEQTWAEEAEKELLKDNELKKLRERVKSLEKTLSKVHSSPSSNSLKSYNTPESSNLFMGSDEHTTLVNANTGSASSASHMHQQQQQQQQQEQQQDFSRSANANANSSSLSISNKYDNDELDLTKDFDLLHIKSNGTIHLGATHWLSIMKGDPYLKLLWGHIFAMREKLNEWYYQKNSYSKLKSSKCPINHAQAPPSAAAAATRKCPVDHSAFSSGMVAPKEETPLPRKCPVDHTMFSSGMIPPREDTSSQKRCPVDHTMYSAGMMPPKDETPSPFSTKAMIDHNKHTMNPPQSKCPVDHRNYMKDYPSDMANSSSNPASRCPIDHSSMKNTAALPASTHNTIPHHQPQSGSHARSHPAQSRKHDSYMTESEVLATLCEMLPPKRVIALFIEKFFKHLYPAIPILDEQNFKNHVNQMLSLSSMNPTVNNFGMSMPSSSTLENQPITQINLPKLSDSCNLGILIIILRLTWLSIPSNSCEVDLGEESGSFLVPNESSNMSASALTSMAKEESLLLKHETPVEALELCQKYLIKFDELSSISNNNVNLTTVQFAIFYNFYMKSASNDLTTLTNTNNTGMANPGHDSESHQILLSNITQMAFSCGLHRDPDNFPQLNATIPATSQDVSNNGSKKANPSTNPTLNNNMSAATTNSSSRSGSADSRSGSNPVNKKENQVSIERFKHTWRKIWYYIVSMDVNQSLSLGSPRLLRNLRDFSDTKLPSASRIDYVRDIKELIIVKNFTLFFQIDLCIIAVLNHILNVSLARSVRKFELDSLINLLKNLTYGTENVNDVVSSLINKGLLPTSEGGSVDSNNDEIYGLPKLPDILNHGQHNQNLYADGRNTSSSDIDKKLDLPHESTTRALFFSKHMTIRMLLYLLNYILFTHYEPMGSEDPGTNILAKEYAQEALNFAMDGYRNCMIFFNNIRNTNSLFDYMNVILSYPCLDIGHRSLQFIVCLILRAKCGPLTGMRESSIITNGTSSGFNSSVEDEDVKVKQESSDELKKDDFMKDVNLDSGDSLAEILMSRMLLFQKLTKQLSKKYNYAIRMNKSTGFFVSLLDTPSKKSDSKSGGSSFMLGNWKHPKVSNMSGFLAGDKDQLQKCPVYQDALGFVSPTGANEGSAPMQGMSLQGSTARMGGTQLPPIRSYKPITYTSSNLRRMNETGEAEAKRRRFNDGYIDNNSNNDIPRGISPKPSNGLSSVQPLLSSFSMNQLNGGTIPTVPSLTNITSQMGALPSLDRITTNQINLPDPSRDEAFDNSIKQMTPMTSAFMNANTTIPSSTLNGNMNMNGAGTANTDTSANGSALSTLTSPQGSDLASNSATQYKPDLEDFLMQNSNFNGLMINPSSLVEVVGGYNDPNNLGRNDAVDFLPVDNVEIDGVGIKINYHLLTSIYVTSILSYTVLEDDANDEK
row,Sequence,PBM E-score
1,GGGCAATA,0.159
2,ATATCAGC,0.0739
3,CGACTTTA,-0.112
4,TGAATGAA,-0.155
5,AAAGACGG,-0.0371
6,AACGTGTA,-0.228
7,AATATGGA,-0.205
8,ATACAGCC,0.0195
9,CACCCCGC,0.198
10,ACGCACCT,-0.185
11,CTTGTGAC,-0.124
12,CCATACCA,-0.09
13,ATGGACCG,0.227
14,CATGGTTC,-0.0797
15,ATTGAGGC,-0.026
16,AGCTCAGA,-0.192
17,CAGGTTCC,-0.0688
18,GGTCTTAC,0.0304
19,ACTTGGCC,-0.00291
20,CGCCTTCA,-0.186
21,AACTGGAA,-0.118
22,CCGCTTGC,0.0503
23,CATCAATC,-0.109
24,GAGGAACC,-0.0105
25,AGTGTGTG,-0.23

row,Sequence,PBM E-score
1,GAGCATTA,-0.104
2,AGGAACGC,-0.121
3,CTTTCGGA,0.399
4,CTCTCTAA,-0.341
5,ATCTCCTA,-0.188
6,CTGAGCCC,-0.19
7,ACTACACC,0.0164
8,AGGTCTCC,-0.14
9,CAATAGAA,-0.194
10,ACGTGCAC,-0.134
11,GCCTGAGC,-0.197
12,ACTACGGG,0.212
13,GTGGCAAA,-0.0776
14,ATGGGGGG,-0.125
15,CTAGCATC,-0.153
16,ACAACTGT,-0.217
17,CGGGACGC,0.222
18,AAGAGCTC,-0.142
19,ACCCGATC,0.244
20,AAGTGCAG,-0.268
21,CACCTAGG,-0.164
22,AGTGCCTA,-0.237
23,ACTGCGAG,-0.0121
24,AATTTGGG,-0.241
25,ATCCCAAT,-0.219

row,Sequence,PBM E-score
1,AGAGCGCA,-0.23
2,AACTCGAC,-0.103
3,AAGAGGGT,-0.167
4,AGTCAATC,-0.153
5,ACTGGGCT,-0.128
6,AGTAATTG,-0.119
7,GTTAAGGA,-0.0731
8,AGACTGAC,-0.15
9,CTTGCCTA,-0.386
10,ATGTATAG,-0.148
11,CACCGGCA,0.201
12,CTGCGTCA,-0.197
13,AGTTCGTC,-0.134
14,ATTGCCTA,-0.216
15,CGCGTCCC,0.0375
16,AGGCTTCG,0.181
17,ACGCTCCG,0.24
18,GATCTTAA,-0.0383
19,GCACGCGC,-0.0115
20,ACGAGATC,-0.15
21,GATATTAA,0.266
22,AGCGAGCG,0.0982
23,GATCTTAC,-5e-05
24,CTTCAAGA,-0.235
25,GACACGTC,0.0131

row,Sequence,PBM E-score
1,AACTTTAG,-0.0782
2,AGCCCTCC,-0.192
3,CGAGGCGA,0.049
4,AATACACG,-0.17
5,AGGCGGAC,0.288
6,AGTTACGA,-0.0272
7,CGACATGC,-0.00382
8,GCTGAAGC,-0.138
9,CTCTCTTC,-0.178
10,AAGCTCAA,-0.167
11,CGACGAAA,-0.0556
12,CGGTCTGC,0.132
13,AATTCCAT,0.0073
14,ATTGTCCC,0.0458
15,GATAACCC,0.172
16,GACTTGGA,-0.045
17,CGTTGGAC,-0.166
18,AAAGAAGA,-0.0993
19,ACGGTGGC,-0.0332
20,CCGGTATC,0.433
21,AACGCAGG,-0.0936
22,ACCCGGTG,0.249
23,ACGATGAA,-0.126
24,CAAATGGC,-0.151
25,CATGCAAA,-0.042

row,Sequence,PBM E-score
1,CATCTCAG,-0.267
2,ACGACACC,0.0827
3,CAGCTGCG,0.0775
4,ACCGTAGA,-0.00694
5,ACGCGGAA,0.217
6,AACCACCG,0.253
7,CTATCGAA,-0.177
8,GTACTTCA,0.032
9,AGCACTCA,-0.125
10,CATCATCA,-0.299
11,GACATTTA,-0.0868
12,AAGGGCGG,0.0942
13,CGTACACG,-0.0669
14,GGCCAAAA,0.0346
15,AGATGCGG,0.0744
16,CACCATAG,-0.321
17,CATAACAC,-0.182
18,CCAACCTA,-0.0165
19,TGACTTAA,-0.151
20,ACACAAGC,-0.224
21,CGAATCCC,0.18
22,ACACTACT,-0.105
23,AAATTCAA,-0.00826
24,CATCCTAA,-0.064
25,CATGACAA,-0.167

row,Sequence,PBM E-score
1,GAGAATAC,0.055
2,CCGCATGA,-0.0486
3,CCCCGTCC,0.271
4,AAGCCGCG,0.263
5,CAGCCAGG,-0.342
6,ACGCCATA,-0.264
7,CCTCTAGC,-0.197
8,CTTTGTAC,-0.177
9,ATACCCAT,-0.149
10,AACACGTG,-0.0868
11,GGTCTTAA,0.257
12,ACTGCCAG,-0.187
13,CTAGGCCA,-0.0035
14,TCTTGAAA,-0.121
15,AAAACGCA,-0.0721
16,ACAGAATG,-0.22
17,ACATTTGC,0.088
18,ACAACCCG,0.107
19,GGCCGCTA,0.225
20,ATAGTATC,0.126
21,AATGGACC,0.209
22,AGCAAGTA,-0.0776
23,ACCTGATG,-0.242
24,CTGAGGAA,-0.11
25,GGTCTTGA,0.0302

row,Sequence,PBM E-score
1,CTGCTATC,0.105
2,AGGGTTAA,-0.259
3,AATTCGGG,0.287
4,AAAGCCAG,-0.207
5,CCCACTCA,-0.272
6,CATCGTAG,-0.191
7,CCTAGTTA,-0.00312
8,ACGCTTAC,-0.0893
9,ACGAGTCC,0.0272
10,GGCCATAC,0.17
11,GGACCAAA,0.273
12,CATATCAC,-0.113
13,ATTGTAGC,-0.0987
14,AGGTATCA,-0.171
15,ATCTATCC,0.228
16,TATCCCAA,-0.0492
17,ACGTTACG,-0.178
18,ACGACACG,0.033
19,GTAACCCA,0.00706
20,AGACTTAG,-0.2
21,ACTAAGAA,0.102
22,AGGAACAA,-0.132
23,TACATTGA,-0.171
24,TATGAGGA,-0.198
25,AGTTCGGC,0.211

row,Sequence,PBM E-score
1,CTTTGGAC,-0.0353
2,CAAGCCTA,-0.221
3,ATTCTCGG,0.339
4,AGCTTTCG,0.0808
5,CAAGGTCC,-0.0114
6,TCCCGAGA,0.261
7,GCACAAGA,-0.126
8,GTCACCAC,0.00067
9,ACCAACGA,-0.116
10,GCGGGCTA,0.0199
11,AAACCCCG,0.438
12,GATTACTA,0.141
13,CCGTACTA,0.228
14,ACGAGCAT,-0.306
15,CCAGGGTA,-0.0668
16,CACTAGCG,-0.0486
17,GTATATAC,0.0615
18,AAACTCCG,0.456
19,ACCTTTAA,-0.123
20,TCGACGCA,-0.0412
21,CATTAAGC,-0.0379
22,CTGTCATC,-0.0833
23,AATGTGAT,0.00864
24,GTCATGAA,-0.0851
25,AAGATCGA,0.0254

row,Sequence,PBM E-score
1,CTCGTCCA,-0.169
2,AGGGTGTA,-0.0852
3,AGGCTACT,-0.112
4,GTCGACCA,0.019
5,GATTCACC,0.159
6,AGCGCACC,0.149
7,ACGGTCGC,-0.0968
8,AAATGAGG,-0.0982
9,ATGTCGAC,-0.0572
10,GCCTCGCC,0.045
11,AATAGCGC,0.0699
12,CTCTGAGC,-0.157
13,AAAGGACC,0.0268
14,AACACTCG,0.012
15,GGTCCACA,-0.173
16,CTACTGGC,-0.0781
17,CTGGCCCC,0.0842
18,CTCCAGCA,-0.241
19,ATGACCAA,-0.0536
